Test results as given in paper PMC4336329 (PLoS ONE, 2015).
The campaign covered roughly 310,000 compounds. About 2,200 (0.71%) showed an effect of 50% or more. The effect is printed as a negative number. This is one part of the list.

Molecular target: human ether-à-go-go-related gene (hERG) potassium channel (human, UniProt Q12809)
Assay: primary screen, population patch clamp on CHO cells stably expressing hERG

Sequence of human ether-à-go-go-related gene (hERG) potassium channel (Q12809 whole entry, looked up): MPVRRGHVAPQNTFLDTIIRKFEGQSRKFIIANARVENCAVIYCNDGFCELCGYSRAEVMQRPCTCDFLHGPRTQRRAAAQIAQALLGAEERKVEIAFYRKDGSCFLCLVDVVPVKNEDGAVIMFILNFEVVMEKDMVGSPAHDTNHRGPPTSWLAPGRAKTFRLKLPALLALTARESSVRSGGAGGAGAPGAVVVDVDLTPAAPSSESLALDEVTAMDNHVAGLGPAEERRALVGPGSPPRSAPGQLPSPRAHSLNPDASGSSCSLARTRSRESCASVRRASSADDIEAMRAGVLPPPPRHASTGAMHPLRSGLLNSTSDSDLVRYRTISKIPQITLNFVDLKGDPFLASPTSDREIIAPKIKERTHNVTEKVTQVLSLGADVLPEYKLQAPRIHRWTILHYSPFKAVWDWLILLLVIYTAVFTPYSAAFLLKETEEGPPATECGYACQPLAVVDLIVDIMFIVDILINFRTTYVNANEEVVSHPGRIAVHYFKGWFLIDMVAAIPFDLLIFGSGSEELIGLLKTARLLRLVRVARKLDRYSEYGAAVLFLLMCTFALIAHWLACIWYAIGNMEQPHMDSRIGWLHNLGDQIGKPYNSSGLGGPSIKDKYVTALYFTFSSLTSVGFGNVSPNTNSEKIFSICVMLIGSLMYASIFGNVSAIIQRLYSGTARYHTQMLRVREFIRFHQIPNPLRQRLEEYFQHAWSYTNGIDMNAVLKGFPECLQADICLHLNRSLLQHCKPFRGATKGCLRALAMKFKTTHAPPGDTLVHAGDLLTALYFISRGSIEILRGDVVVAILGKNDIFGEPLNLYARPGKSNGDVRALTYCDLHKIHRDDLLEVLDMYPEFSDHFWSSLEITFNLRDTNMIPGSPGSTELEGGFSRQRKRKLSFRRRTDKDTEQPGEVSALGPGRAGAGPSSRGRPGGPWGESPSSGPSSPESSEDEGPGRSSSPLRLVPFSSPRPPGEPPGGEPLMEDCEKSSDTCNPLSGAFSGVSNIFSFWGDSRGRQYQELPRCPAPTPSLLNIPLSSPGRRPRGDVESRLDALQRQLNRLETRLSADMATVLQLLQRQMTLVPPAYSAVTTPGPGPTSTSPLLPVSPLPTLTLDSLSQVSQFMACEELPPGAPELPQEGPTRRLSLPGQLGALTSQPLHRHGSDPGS

SMILES | hERG current change (%, negative = inhibition) at 1uM
Cc1cccc(OCCCC(=O)Nc2ccc(S(=O)(=O)Nc3onc(C)c3C)cc2)c1 | 13%
CCn1c(SCC(=O)Nc2ccc(C(C)=O)cc2)nnc1C1CC1 | 11%
O=C(O)C1(S(=O)(=O)CCC(F)=C(F)F)CC1 | 12.8%
Cc1cn(S(=O)(=O)c2cc(Br)ccc2Br)cn1 | 7.35%
CC(C)CC(c1nnnn1C(C)C)N1CCN(C(=O)c2ccco2)CC1.Cl (stereo not shown) | -4.77%
COc1ccc(-c2cccc(C(=O)Nc3ccc(C)cc3)c2)cc1 | 14.2%
CN1CCN(S(=O)(=O)c2ccc3ccccc3c2)CC1 | 9.45%
CC1CCCCN1C(=O)CSc1nc2ccccc2[nH]1 (stereo not shown) | 15.6%
C1=C(N2CCOCC2)/C(=C/c2nc3ccccc3[nH]2)CC1 | 12.4%
O=C(CSC(=S)N1CCOCC1)Nc1ccc(S(=O)(=O)Nc2ncccn2)cc1 | 16.6%
C=CCOc1ccc2c(c1)C(=NO)c1cc(OCC=C)ccc1-2 | 5.57%
O=C1NC(=O)N(Cc2ccco2)C(=O)/C1=C/C=C/c1ccco1 | 14.5%
Cc1cc(NC(=O)CCC2COc3ccccc3O2)no1 (stereo not shown) | 3.99%
O=C(Nc1ccc2nc(-c3ccccn3)[nH]c2c1)C1CCCCC1 | 1%
O=C(O)CCCNS(=O)(=O)c1cccs1 | 14.4%
CCN(CC)c1ccc(NC(=O)c2ccccc2OCC(=O)OC)cc1 | 4.39%
COc1ccccc1/C=N/NC(=O)c1nnn(-c2nonc2N)c1CN(C)c1ccccc1 | 16.4%
CC1CCN(Cc2nnnn2CCCC(=O)NCCN2CCOCC2)CC1 | 11%
COc1ccc(C2c3sc(=O)[nH]c3SC3C4CCC(C4)C23)cc1OC (stereo not shown) | 4.6%
NC(=O)C1(N2CCCCC2)CCN(C(=O)Nc2ccccc2C(F)(F)F)CC1 | 9.64%
C=CC[n+]1c(-c2ccc(C)cc2)csc1Nc1c(C)n(C)n(-c2ccccc2)c1=O.[Br-] | 1.8%
CCOc1ccc2oc(=O)cc(C)c2c1 | 12.5%
C=C1CSc2nc(=O)c3c4c(sc3n21)CCC4 | -1.33%

SMILES | hERG current change (%, negative = inhibition) at 1uM
COc1ccc(N(CC(=O)NCc2ccccc2OC)S(=O)(=O)c2c(C)nn(C)c2C)cc1 | 8.52%
O=C(Nc1cccc(Cl)c1)C1CCCN(S(=O)(=O)c2cnc[nH]2)C1 (stereo not shown) | 16%
O=C(CNc1ccccc1)N/N=C/c1ccc2c(c1)OCCO2 | 9.93%
Cc1ccc(NC(=S)N2CCN(Cc3ccc4c(c3)OCO4)CC2)c(C)c1 | 7.21%
Cc1ccc(-c2c(C(=O)N/N=C/c3ccco3)nnn2-c2nonc2N)cc1 | 11.6%
CC12CCC(C(=O)N(CCC#N)CCC#N)(CC1=O)C2(C)C (stereo not shown) | -7.56%
CCOc1ccc2nc(SCC(=O)c3ccccc3)sc2c1 | 17.8%
COc1cccc2[nH]c3c(=O)[nH]cnc3c12 | 12.6%
Cc1cc(C)c(N=Cc2c(O)[nH]c(=O)[nH]c2=O)c(C)c1 | 12%
CC(C)c1ccc(NC(=S)NN2CCOCC2)cc1 | 12.6%
CCNC(=S)N/N=C1\CCCCc2ccccc21 | 2.38%
O=C(NCCCCc1ccccc1)C1CC(c2ccccc2C(F)(F)F)=NO1 (stereo not shown) | 15.9%
O=C(NCc1cccs1)c1ccc([N+](=O)[O-])cc1Cl | 7.25%
COC(=O)CCC(=O)NC(=S)Nc1ccccc1F | 9.11%
COC(=O)c1cn(C(=O)OC)c2ccccc12 | 4.65%
COc1ccc(C(=O)NCC2(N3CCCCC3)CCCCC2)cc1S(=O)(=O)N(C)C | 9.44%
CC(C)(C)NC(=O)Cn1c(=O)oc2ccc(Cl)cc21 | 9.8%
COc1ccc(C(=O)OC2CCN(C)CC2)cc1.Cl | 1.23%
Cc1ccc(C)n1-n1c(C)nc2scc(-c3cccs3)c2c1=O | 3.06%
CC(C)(C)NC(=O)NC(=O)CSc1cccc(C(F)(F)F)c1 | 11.6%
CCSc1nnc(CSc2ncccn2)n1C | 8.89%
CN(C)c1oc(COc2ccc(F)cc2)nc1C#N | 2.07%
O=C(COC(=O)/C=C/c1ccccc1)NC1CCCCC1 | 6.97%

SMILES | hERG current change (%, negative = inhibition) at 1uM
O=C(NC1CC1)C1CCN(C2CCN(C(=O)Cc3ccc4c(c3)OCO4)CC2)CC1 | 11.6%
Cc1cc(C)n(CCNC(=O)C2CCC(=O)N(CCc3cccc(F)c3)C2)n1 (stereo not shown) | 14.5%
Cc1ccc(C)c2[nH]c(=O)c(CCNC(=O)c3cccs3)cc12 | 7.48%
Cc1nnc(SCC2=C(C(=O)O)N3C(=O)C(NC(=O)Cn4nc(C(F)F)cc4C)C3SC2)s1 (stereo not shown) | 4.52%
O=C(COC(=O)C12CC3CC(CC(Br)(C3)C1)C2)Nc1cccnc1Cl | 4.7%
CCC1(C)Cc2nc(Cl)c(C#N)cc2CO1 (stereo not shown) | 8.18%
CC1CCCCN1C(=O)CNCc1ccc(F)cc1.O=C(O)C(=O)O (stereo not shown) | 8.26%
Cc1cccc(NC(=S)NCCC(c2ccccc2)c2ccccc2)c1 | 7.6%
CCOC(=O)c1sc(NC(=O)c2ccc3ncsc3c2)nc1C | 14.4%
COc1cccc(N2CC(C(=O)N3CCC4(CC3)CC(=O)c3ccccc3O4)CC2=O)c1 (stereo not shown) | 3.79%
CN(CCOc1ccc(Cl)cc1)C(=O)c1cc(-c2ccco2)nc2ccccc12 | -0.276%
F[B-](F)(F)F.OCC[NH+]=c1cc(-c2ccccc2)oc2ccc(Cl)cc12 | -71.1%
Cn1c(SCC(=O)N2CCN(c3ccccc3)CC2)nnc1-c1c[nH]c2ccccc12 | 1.89%
CC(C)c1ccc(NC(=S)NCc2cccs2)cc1 | -3.09%
c1ccc(Oc2nc(NCc3ccco3)nc(NCc3ccco3)n2)cc1 | 14.6%
CC(=O)N1CCc2cc(C(=O)CN3CCC(C)CC3)ccc21 | 6.75%
CCOC(=O)N1CCC(NC(=O)c2cc3c(-c4cccc(OC)c4)nn(C)c3s2)CC1 | -3.27%
CCCCCC(=O)NNC(=S)NC(=O)c1ccccc1[N+](=O)[O-] | 13.9%
CCCN1CCC(N(C)CCc2ccc(OC)c(OC)c2)CC1 | 6.4%
N#CCC(=O)N/N=C/c1cn(Cc2ccc(Cl)cc2Cl)c2ccccc12 | 14.9%
COc1cccc2cc(C(=O)Nc3ccccc3Cl)/c(=N/NS(=O)(=O)c3ccccc3)oc12 | 12.2%
Cc1ccc2c(C)c(C(=O)N3CCN(c4cnccn4)CC3)oc2c1C | 9.49%
CC(Sc1nnc2ccccn12)C(=O)Nc1ccc2c(c1)OCCO2 (stereo not shown) | 6.29%

SMILES | hERG current change (%, negative = inhibition) at 1uM
O=C(CN(Cc1ccco1)C(=O)c1ccccc1)Nc1ccc(Cl)c(Cl)c1 | -1.04%
O=C(CCCN1C(=O)c2cccc3cccc(c23)C1=O)NCc1ccco1 | -4.08%
N#CC1=C(N)Oc2c(c(=O)sc3ccccc23)C1c1ccncc1 (stereo not shown) | 14.7%
Cc1ccc(NC(=O)c2cc(-c3cccs3)on2)cc1 | 13.1%
Cc1ccc(NC(=S)NCc2ccco2)c(C)c1 | 6.13%
COC(=O)[C@@]12CCCN1[C@H](c1ccc(-c3ccc(C(C)=O)cc3)c(OC)c1)[C@H]1C(=O)N(C)C(=O)[C@H]12.O=C(O)C(F)(F)F | 3.42%
C=CCC1(CC=C)CCCN1Cc1nc(COc2ccccc2)no1 | 11.4%
O=C(CSc1nnc(Nc2ccccc2F)s1)NC1CCCC1 | 12.7%
Cc1cccc(-n2c(CNC(=O)c3ccc(S(=O)(=O)N4CCCCC4)cc3)n[nH]c2=S)c1 | 14%
S=c1[nH]nc(-c2cccs2)n1/N=C/c1c(Cl)cccc1Cl | 15.1%
COc1cccc(N2C(=O)c3ccncc3C2=O)c1 | 15.7%
O=C1CC(NCCc2ccccc2)C(=O)N1CCc1ccccc1 (stereo not shown) | 9.35%
CCCCc1nc2sc3c(c2c(=O)[nH]1)CC(C)(C)OC3 | 9.9%
COc1ccc(/C(C)=N/NC(=O)c2ccccc2OCc2ccccc2)c(OC)c1 | 12.1%
CCOC(=O)C1=NNC(C(=O)c2ccccc2)C1c1ccc(C)cc1 (stereo not shown) | 10.8%
Cc1c(N=C/C=C2\N(C)c3ccccc3C2(C)C)c(=O)n(-c2ccccc2)n1C | -15.5%
Cc1ccccc1OCC(=O)Nc1sc(C(=O)Nc2cccc(C)c2C)c(C)c1C#N | 7.86%
COc1ccc(-c2csc(Nc3cccc(C)n3)n2)cc1 | 13.3%
COc1cc(NC(=O)COc2c(C)cc(C)cc2[N+](=O)[O-])c(OC)cc1Cl | 4.79%
COc1cc(OC)c(S(=O)(=O)Nc2ccccc2C(=O)O)cc1S(=O)(=O)Nc1ccccc1C(=O)O | 10.9%
O=C(O)Cc1ccc(NC(=O)Nc2ccc(Br)cc2)cc1 | 14.1%
COc1cc2c(cc1OC)C(C)N(C(=O)c1cc3c(C)cc(C)cc3[nH]1)CC2 (stereo not shown) | 12%
